# Results reported in PubChem BioAssay AID485281 (National Center for Advancing Translational Sciences (NCATS), 2010).
# About 260 (0.074%) of roughly 350,000 compounds were called active. Inconclusive results, whose numbers are uncertain, are shown with a selection of clear calls. Calls come from the whole dose curve; as a rule, active = well fitted inhibition curve with a large enough effect; inconclusive = small, poorly fitted or top-dose-only effect; inactive = no such curve, though single readings can be large or run the other way. A potency beside an inconclusive call is a rough fit, not a confirmed value.
# Target: Ferritin light chain (Equus caballus) (UniProt P02791)
# Sequence of UniProt P02791 (P02791 whole entry, looked up): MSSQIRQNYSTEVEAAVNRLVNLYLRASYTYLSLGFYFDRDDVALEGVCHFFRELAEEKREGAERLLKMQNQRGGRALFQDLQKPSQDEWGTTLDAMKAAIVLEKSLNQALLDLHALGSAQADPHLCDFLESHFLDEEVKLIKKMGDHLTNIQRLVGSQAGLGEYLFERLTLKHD
# Experiment: qHTS Assay for Identification of Novel General Anesthetics; note: nearly all actives have a fitted effect of over 20% in size
# Conditions: apoferritin/1-aminoanthracene competitive binding, fluorescence; series mostly up to 77.5 µM
# In short: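 10 uM apoferritin + 50% sat. 1-AMA, PBS; cpd 10 min RT; Ex380/Em535 endpoint; normalized to free probe vs complex; 4-param Hill fit; propofol titration as pos. ctrl.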
# Potency is the fitted concentration of half-maximal effect; tags give direction and shape of the fitted curve.
row,Structure (SMILES),Potency
1,OCCN(CCCn1c(C(F)(F)F)nc2ccccc21)c1nc(CN2CCCCC2)cs1,"inconclusive: 50.1 µM [inhibitor, single point]"
2,COc1ccccc1OCCNC(=O)Cc1ccc(Cl)c(Cl)c1,"inconclusive: 20 µM [inhibitor, partial curve]"
3,CC(=O)OCC(=O)Nc1ccc(Br)c(C)c1,"inconclusive: 31.6 µM [inhibitor, partial curve]"
4,CC1CCCCC1NC(=O)CC1Oc2ccccc2NC1=O (centres undefined),"inconclusive: 31.6 µM [inhibitor, partial curve]"
5,O=C(CSCc1ccccc1Cl)N/N=C/c1ccco1,"inconclusive: 15.8 µM [inhibitor, partial curve]"
6,Cc1cc(S(=O)(=O)Nc2cc(C)c(O)c(C)c2)c(C)s1,"inconclusive: 14.1 µM [inhibitor, partial curve]"
7,Cc1csc(SCC(=O)N2CCN(S(=O)(=O)c3ccccc3)CC2)n1,inactive
8,Cc1c(C(=O)NCc2ccc(Cl)cc2)sc2nc3n(c(=O)c12)CCC3,"inconclusive: 2.24 µM [inhibitor, full curve]"
9,Nc1c(-c2ccc(Cl)cc2)cnc2c(-c3ccccc3)cnn12,inactive
10,Cc1c(C(=O)O)oc2c1-c1nn(Cc3ccccc3Cl)cc1CC2,"inconclusive: 25.1 µM [inhibitor, partial curve]"
11,Cc1nnc(Oc2ccc([N+](=O)[O-])cc2)c2ccccc12,inactive
12,Cc1ccc(C)c(OCc2nnc(SCC(=O)NCc3ccc4c(c3)OCO4)o2)c1,"inconclusive: 22.4 µM [inhibitor, partial curve]"
13,CO/C=C\C=C/c1nnn(-c2ccc(Cl)cc2)n1,inactive
14,CCc1ccccc1NC(=O)c1ccc(F)c(S(=O)(=O)N2CCN(c3ccccc3OC)CC2)c1,inactive
15,O=C1OCCN1C(=O)[C@H]1[C@H](c2ccccc2)C(c2cccc(Cl)c2)=NN1c1ccc(Br)cc1,inactive
16,CN(C)S(=O)(=O)c1ccc(C(=O)OCC2CC2(Cl)Cl)cc1 (centres undefined),inactive
17,O=C(O)c1cccc(NC(=S)N/N=C/c2ccccc2OCc2ccc(Br)cc2)c1,inactive
18,Cc1nc2nc(NCc3cccs3)nn2c(C)c1Cl,"inconclusive: 28.2 µM [inhibitor, partial curve, poor fit]"
19,Cc1ccccc1NS(=O)(=O)c1cccc2nonc12,"inconclusive: 25.1 µM [inhibitor, partial curve]"
20,Cc1ccc(C(C)C)c(OCC(=O)N/N=C/C2CCCCC2)c1,"inconclusive: 56.2 µM [inhibitor, single point]"
21,O=C(c1ccccc1F)N1C(=O)c2cccc3cccc1c23,"inconclusive: 14.1 µM [inhibitor, partial curve]"
22,COc1cccc(OCc2nnc(SCC(=O)NCc3ccco3)n2CCc2ccccc2)c1,"inconclusive: 50.1 µM [inhibitor, single point]"
23,Cc1nn(-c2ccccn2)c2nc(-c3cccs3)cc(C(=O)NCc3ccco3)c12,inactive

row,Structure (SMILES),Potency
1,CCCOc1ccc(C2C(=O)N(C3CCCCCC3)CC(=O)N2Cc2ccco2)cc1OC (centres undefined),"inconclusive: 50.1 µM [inhibitor, single point]"
2,O=C(Nc1cccc(OCc2cc(=O)n3ccccc3n2)c1)Nc1cccc(C(F)(F)F)c1,inactive
3,COc1ccccc1Nc1ccc(NC(=O)c2cccc([N+](=O)[O-])c2C)cc1,"inconclusive: 50.1 µM [inhibitor, single point]"
4,CC12COC3(C(=O)Nc4ccc5ccccc5c4)CC1CCC32C (centres undefined),"inconclusive: 20 µM [inhibitor, partial curve]"
5,CC1CCN(C(=S)c2ccc(O)cc2)CC1,"inconclusive: 15.8 µM [inhibitor, partial curve]"
6,Cn1c2ccccc2c(=O)c2cc(C#CC3(O)CCCCC3)ccc21,inactive
7,COc1ccc(OC)c(CC2C(=O)Nc3ccc(Br)cc32)c1 (centres undefined),"inconclusive: 28.2 µM [inhibitor, partial curve]"
8,Cn1c(C(=O)NCc2ccccc2)cc2oc3ccccc3c21,inactive
9,CCCOC(=S)NC(=O)c1sc2ccccc2c1Cl,"inconclusive: 20 µM [inhibitor, partial curve]"
10,O=C(c1ccc(-n2cncn2)c([N+](=O)[O-])c1)N1CCN(c2cccc(Cl)c2)CC1,"inconclusive: 22.4 µM [inhibitor, partial curve]"
11,CNc1ccccc(C(=O)/C=C/c2ccccc2OC)c1=O,inactive
12,C/C=C\C=C\C(=O)N1CC2(CC(c3cccc(NC(=O)COc4ccc(Cl)cc4)c3)=NO2)C[C@H]1C(N)=O (some centres undefined),inactive
13,Cc1cccc(C)c1NC(=O)CCC(=O)N1Cc2ccccc2Oc2ncccc21,"inconclusive: 1.12 µM [inhibitor, full curve, poor fit]"
14,Cc1cccc(C)c1-n1ncc(C(=O)NCCN2CCN(C)CC2)c1C1CCN(C(=O)OC(C)(C)C)CC1,"inconclusive: 6.31 µM [inhibitor, single point]"
15,O=C1CCN(Cc2ccccc2)CCN1[C@H](COc1ccccc1)c1ccccc1,"inconclusive: 31.6 µM [inhibitor, partial curve]"
16,CCOC(=O)c1cnc2ccc(OC)cc2c1Nc1cccc(C(C)=O)c1,"inconclusive: 35.5 µM [inhibitor, partial curve]"
17,CCCC(=O)n1nc(-c2ccco2)nc1SCc1ccccc1,"inconclusive: 28.2 µM [inhibitor, single point]"
18,COc1cc(C2C(C(=O)c3ccc(C)o3)=C(O)C(=O)N2c2cc(C)on2)ccc1O (centres undefined),"inconclusive: 28.2 µM [inhibitor, partial curve]"
19,OCCN1CCN(c2ncnc3c2sc2nc(N4CCOCC4)c4c(c23)CCC4)CC1,"inconclusive: 22.4 µM [inhibitor, partial curve]"
20,Cc1ccc(S(=O)(=O)NNC(=O)NC23CC4CC(CC(C4)C2)C3)cc1,"inconclusive: 39.8 µM [inhibitor, partial curve]"
21,COc1ccccc1-c1nnc(SCC(=O)c2ccc(C3CCCCC3)cc2)n1Cc1ccco1,"inconclusive: 11.2 µM [inhibitor, partial curve]"
22,O=C(Nc1ccc(Cl)c(Cl)c1)N1CC=CCC1,"inconclusive: 17.8 µM [inhibitor, partial curve]"
23,CN(C)c1ccc(N=c2sc3ccccc3n2C)cc1,"inconclusive: 15.8 µM [inhibitor, partial curve]"

row,Structure (SMILES),Potency
1,Cc1nonc1OCCNCc1c(C(=O)N2CCCCCCC2)nc2ccc(Cl)cn12,"inconclusive: 50.1 µM [inhibitor, single point]"
2,Cc1cccc(NC(=O)C2CCN(S(=O)(=O)c3c(C)noc3/C=C/c3ccco3)CC2)c1,inactive
3,c1ccc(OCc2nn3c(C4CCCCC4)nnc3s2)cc1,"inconclusive: 39.8 µM [inhibitor, single point]"
4,CCc1ccccc1Nc1nc(-c2cccnc2)cs1,"inconclusive: 31.6 µM [inhibitor, single point]"
5,COc1ccc(-n2c(C)cc(C(=O)CN3C(=O)NC4(CCc5ccccc54)C3=O)c2C)cc1 (centres undefined),"inconclusive: 7.08 µM [inhibitor, partial curve]"
6,O=C(Cc1ccccc1)c1ccc2c(c1)OCCO2,"inconclusive: 25.1 µM [inhibitor, partial curve]"
7,Cc1ccc(S(=O)(=O)Nc2ccc(NC(=O)c3cccs3)cc2)cc1,"inconclusive: 14.1 µM [inhibitor, partial curve]"
8,COc1c(C)cc(NS(=O)(=O)c2ccc3c(c2)OCCO3)cc1C,"inconclusive: 22.4 µM [inhibitor, partial curve]"
9,CCCc1nc2ccccc2c(=O)n1/N=C/c1ccc(O)c(O)c1,"inconclusive: 20 µM [inhibitor, partial curve]"
10,O=C(CCC1CCCCC1)Nc1nccs1,"inconclusive: 14.1 µM [inhibitor, partial curve]"
11,Nc1nc2ccc(C(=O)NCCOC(=O)C3CCCCC3)cc2s1,inactive
12,Cc1ccc(NC(=O)CC(=O)c2ccccc2)cc1C,"inconclusive: 35.5 µM [inhibitor, partial curve, poor fit]"
13,Cc1ccc(C)c(NC(=O)C2COc3ccccc3O2)c1 (centres undefined),"inconclusive: 15.8 µM [inhibitor, partial curve]"
14,Cc1ccc(Nc2nc(N)c3ccccc3n2)cc1C,"inconclusive: 28.2 µM [inhibitor, partial curve]"
15,O=C(NCc1ccc(Cl)cc1)C(=O)c1cn(CC(=O)N2CCOCC2)c2ccccc12,"inconclusive: 28.2 µM [inhibitor, partial curve]"
16,CCCOc1cccc(C(=O)NC(=S)Nc2cccc(C(F)(F)F)c2)c1,"inconclusive: 14.1 µM [inhibitor, partial curve]"
17,COC(=O)c1[nH]c2ccccc2c1NC(=O)C(C)N1CC(C)OC(C)C1 (centres undefined),inactive
18,CCOC(=O)c1c(NC(=O)CSc2nc3cccnc3n2C)sc(C(C)=O)c1C,"inconclusive: 3.55 µM [inhibitor, partial curve]"
19,S=C(NC1CCCC1)N1CCN(c2ccccn2)CC1,inactive
20,O=c1c(/C=N/Nc2ccccc2)c(Sc2nnnn2-c2ccccc2)nc2ccccn12,inactive
21,CCn1c(COc2ccccc2)nnc1SCC(=O)CC(=O)Nc1ccccc1OC,"inconclusive: 20 µM [inhibitor, partial curve]"
22,Cc1ccc(NC(=O)CSc2nc3ccccc3c3nc(CCc4c(C)n[nH]c4C)nn23)cc1F,"inconclusive: 10 µM [inhibitor, partial curve]"
23,CC1CCCCC1NC(=O)Cn1nc(-c2ccccc2)ccc1=O (centres undefined),"inconclusive: 10 µM [inhibitor, partial curve]"
